# Laboratory results: the supplement of paper PMC12217912
# Some of the results follow. The full chains were built here from the parent and the listed change. Inactive controls read about 0.05.
# B1: TEV protease; numbered along this chain (parent)
# chain: MGESLFKGPRDYNPISSSICHLTNESDGHTTSLYGIGFGPFIITNKHLFRRNNGTLVVQSLHGVFKVKDTTTLQQHLVDGRDMIIIRMPKDFPPFPQKLKFREPQREERICLVTTNFQTKSMSSMVSDTSCTFPSGDGIFWKHWIQTKDGQCGSPLVSTRDGFIVGIHSASNFTNTNNYFTSVPKNFMELLTNQEAQQWVSGWRLNADSVLWGGHKVFMVKPEEPFQPVKEATQL
# Variants of: B1
# Experiment: raw area under fraction-flipped curve 0-4 h after induction (AUC4h, not background-subtracted), DNA-recorder readout of cleavage of the substrate (dimensionless); higher = more cleavage of the substrate by the protease variant
# Conditions: temperature: 34 °C; time window: 0-4 h after rhamnose induction
# 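Further: Bxb1 expression induced with 0.2% (w/v) L-rhamnose at OD600 near 0.5, cultures sampled hourly, flipped fraction per protease–substrate barcode pair counted by paired-end Illumina sequencing.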
Variant,area with substrate ENLYDQS,area with substrate ENLYHQS,area with substrate ENLYKQS,area with substrate ENLYLQS,area with substrate ENLYRQS,area with substrate ENLYTQS,area with substrate ENLYVQS,area with substrate ENLYWQS,area with substrate ENLYYQS,area with substrate ENLYEQS,area with substrate ENLYNQS,area with substrate ENLYPQS,area with substrate ENLYSQS,area with substrate ENLYIQS,area with substrate ENLYQQS,area with substrate ENLYGQS,area with substrate ENLYMQS
P96Y,0.0522,0.0644,0.0197,0.12,0.0587,0.0743,0.13,0.045,0.0602,,,,,,,,
K120F,0.0687,,0.0596,,,,,0.0665,,0.0577,0.0667,0.0751,0.0804,,,,
A232K,0.0713,0.0793,0.0591,,,,,,0.0796,,0.0621,0.0735,0.0824,0.16,0.0822,,
A232M,0.0723,0.0627,0.0299,,0.0595,0.0803,,0.0812,0.0704,0.0662,0.0512,0.0543,,,0.0675,0.0711,0.0932
F140R,0.0446,0.0612,0.0507,0.0673,0.0638,0.0674,0.0749,0.0606,0.0514,0.0499,0.0614,0.0629,0.0557,0.0733,0.0518,0.0634,0.0625
D208K,0.0526,0.0812,0.0614,,,,0.082,,,,,,,,,,
W144V,0.0583,0.0639,0.0611,,0.0629,,,0.0513,0.0655,0.0659,0.0535,0.064,,0.0913,0.0722,0.0747,0.0803
V200I,0.0518,,,,0.0944,,,0.0822,,,,0.0617,,,,,0.055
P104W,0.0343,0.0739,0.0614,0.0495,0.0482,0.0554,0.0576,0.0334,0.0448,0.058,0.0592,0.0565,,,0.0656,0.0611,0.0554
R160I,0.0568,0.077,0.0643,,0.0652,,0.116,0.0675,0.0671,0.0759,0.0637,0.0805,0.0491,0.107,,0.0448,0.0723
P96K,0.0601,0.0699,0.0645,,,,0.131,0.0877,,0.0646,0.0687,0.0876,,0.115,0.0552,0.0679,0.0776
G8S,0.0644,0.0628,,,0.0446,,,,,0.0575,0.0603,0.0673,,,0.168,0.0537,0.081
S16M,0.0594,0.0746,0.0673,,0.0643,0.0654,0.144,0.0784,,0.071,0.0649,0.0747,,,0.0593,0.0607,0.0878
L48N,0.068,0.0261,0.0521,,0.0512,,,0.056,,0.0653,0.0551,0.053,0.0635,,,0.0642,
T72S,,0.0754,,,,0.0922,,0.0741,0.0843,0.0643,0.0652,0.0765,0.0768,,,0.0662,0.0874
V64R,,0.0671,0.0746,,,0.0777,0.0619,,,0.0636,,,0.0717,0.121,0.0512,,
V64W,,0.0652,0.0569,0.0759,,,0.0893,,,0.0655,0.0703,0.0853,,0.123,0.105,0.0895,0.101
K216I,,0.0437,,,,0.0698,,,,0.0623,0.0774,,,,,0.0662,0.0841
A232F,,,0.0224,,,0.0778,0.111,0.076,,0.0602,,0.0737,,,,0.0544,
T176V,,0.0829,,,,,0.0855,0.0444,0.0484,0.0586,,0.0857,0.064,0.106,,,
G80P,,0.053,,,,,,0.0646,,0.0426,0.0579,,,,,,
K216D,,,0.0674,0.0698,,,,0.0473,,0.0495,,0.0634,0.0599,,,,
A232V,,,,,,,,,,0.0769,0.0674,0.0771,0.0868,,,0.0518,
G80T,,0.0538,0.0819,,0.0599,,,0.0774,0.055,0.0684,0.0656,0.0491,,,0.0608,,

Variant,area with substrate ENLYDQS,area with substrate ENLYHQS,area with substrate ENLYKQS,area with substrate ENLYLQS,area with substrate ENLYRQS,area with substrate ENLYTQS,area with substrate ENLYVQS,area with substrate ENLYWQS,area with substrate ENLYYQS,area with substrate ENLYEQS,area with substrate ENLYNQS,area with substrate ENLYPQS,area with substrate ENLYSQS,area with substrate ENLYIQS,area with substrate ENLYQQS,area with substrate ENLYGQS,area with substrate ENLYMQS
V200L,,0.0787,,,0.0825,,,,,0.0672,0.0691,,0.0735,0.103,0.057,0.0741,0.0942
D128W,,0.0815,0.0457,,0.0644,0.158,,,,0.0862,0.0576,,0.168,0.138,0.1,,0.173
C152M,,,0.0631,0.0664,,,,0.0536,0.0477,0.068,0.054,0.0768,0.0505,0.0702,,,
G136N,,0.1,0.0593,0.069,0.0678,0.0985,0.14,0.0701,0.0814,0.0847,0.066,0.0812,,0.122,0.0621,0.0759,0.107
R160K,,,0.0649,,,,,0.0621,0.0573,0.0709,0.0678,0.0796,,0.109,,0.0697,0.12
V64L,,,0.0645,,,,,0.0773,0.074,0.0638,0.0754,,,0.133,,,0.0696
W144R,,0.0779,,,0.0701,,,,0.0669,0.0951,,0.0486,,0.1,,0.0595,0.0823
P104T,,,,,,0.0376,,,,0.0605,,0.0621,0.0518,,0.0598,0.0645,0.0653
L5E,,0.111,0.0495,,0.0541,0.0923,0.147,0.0537,0.0676,,0.0683,0.0911,0.076,0.125,0.0538,0.063,0.0931
L48E,,0.0628,0.0668,0.0445,0.0583,,0.0612,0.0599,0.0602,,0.0616,0.0602,,0.0598,0.0573,0.0594,0.0608
T72G,,0.0769,,,0.0657,0.0655,0.0909,,0.0733,,0.0515,,0.0695,0.092,0.06,0.0619,0.0704
W203A,,0.0462,0.0664,,0.0653,0.0554,0.093,0.0578,,,0.0576,0.0666,0.0583,0.0691,0.0654,,0.056
D128Y,,0.0825,,,0.0918,,,0.099,,,0.0806,,0.114,0.13,,,0.1
A232T,,0.0709,0.067,,0.0561,,0.165,0.0671,,,,,,,0.0442,,0.0786
V200A,,0.041,,0.0721,,,,,,,,0.0368,,0.0701,,,
T176R,,0.0531,0.0167,,0.0738,,0.106,,,,,0.0664,0.0636,,0.0676,,0.0652
L56M,,0.0619,0.0768,0.0969,,,,0.0797,0.076,,0.0714,0.0554,0.0643,0.102,,,0.0931
K216R,,0.0899,,,,,,,,,,,,,,,
G8D,,,,,,,,0.0623,0.0613,,0.0581,0.0604,,0.0944,0.0619,,0.0763
H168A,,,,0.065,,,,,,,0.0482,0.0464,,0.0598,,,0.0557
M88H,,,0.0399,,0.0627,0.0391,,,0.0443,,0.0445,,,,0.048,,
T192W,,,,,,,,,,,,,,,0.0624,,
V200S,,,,,,,,0.048,,,,,0.0547,,,,
